Measurements: PubChem BioAssay AID686971 (National Center for Advancing Translational Sciences (NCATS), 2013)
The campaign covered roughly 360,000 compounds. About 7,500 (2.1%) were called active. Inconclusive results, whose numbers are uncertain, are shown with a selection of clear calls. Calls come from the whole dose curve; as a rule, active = well fitted cell-killing curve with a large enough effect; inconclusive = small, poorly fitted or top-dose-only effect, or effect the other way, or another doubt; inactive = no such curve, though single readings can be large or run the other way. Potencies of inconclusive entries are left out as doubtful fits.
Potency is the fitted concentration of half-maximal effect; tags give direction and shape of the fitted curve.

Experiment: qHTS for induction of synthetic lethality in tumor cells producing 2HG: qHTS for the HT-1080-IDH1KD cell line;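 for activity, negative = toxicity: 0% = DMSO wells and -100% = cell-free medium wells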
Details: HT-1080 IDH1 knockdown viability, ATP luminescence, 48 h; activity, negative = toxicity: at 46.1 µM (top of the series) unless noted
How it was run: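 Knockdown cells (IDH1KD HT-1080) received compounds 2 h after plating at 750 cells/well and were kept 48 h at 37 °C in 5% FBS RPMI. A CellTiter-Glo luminescence read gave % activity for curve fitting.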
With COC(=O)Cc1ccc(NC(=S)NNC(=O)c2ccccc2Br)cc1 the Potency was inconclusive [rising, single point]. With COc1cccc2cc(-c3nnc(-c4ccccc4)o3)c(=O)oc12 the “activity, negative = toxicity” value was inactive: 19.8%. With Cc1oc(-c2ccc(Cl)cc2)nc1CN1CCC(C(=O)NCCCN2CCOCC2)CC1 the Potency was inconclusive [cytotoxic, single point]. For COc1cc(CN2CCN(c3cccc(Cl)c3)CC2)cc(OC)c1OC, the Potency was active: 7.08 µM. With Cc1cc(C(=O)COC(=O)c2ccc(N)c([N+](=O)[O-])c2)c(C)n1-c1ccc2c(c1)OCO2 the Potency was inconclusive [cytotoxic, single point]. With COc1ccc(/C=C/C(=O)c2c(O)c(OC)c3occc3c2OC)cc1 the Potency was inconclusive [cytotoxic, single point]. With CC(C)CC(O)(c1ccccc1)C(CN1CCOCC1)c1ccccc1 (configuration not stated) the Potency was inconclusive [cytotoxic, single point]. For CC(=O)C1=CCC(c2ccccc2)N(S(=O)(=O)c2ccc(C)cc2)C1 (configuration not stated), the Potency was inconclusive [cytotoxic, single point]. For Cc1ccc2ccc(C(Nc3ccccc3)c3ccc(Cl)cc3)c(O)c2n1 (configuration not stated), the Potency was inconclusive [cytotoxic, partial curve]. With CCCCNC(=O)C[C@@H]1C[C@@]2(C(=O)OC)CC(C)(C)CC=C2N(Cc2cccc3ccccc23)C1=O the Potency was inconclusive [cytotoxic, single point]. With C=CCn1c(SCc2csc(-c3ccc(C)cc3)n2)nnc1-c1ccccc1OC the activity, negative = toxicity was inconclusive: -30.8% [cytotoxic]. For CCOC(=O)c1c(C)c(C(=O)NCCOC)c(C)n1CC, the “activity, negative = toxicity” value was inactive: -0.689%. For COc1ccc(CC2(CO)CCN(Cc3cnn(-c4ccc(F)cc4)c3)CC2)cc1, the “activity, negative = toxicity” value was inactive: 14.1%. For Cc1ccccc1-c1cc2nc(NCc3ccc(N(C)C)cc3)n(C)c(=O)c2s1, the Potency was inconclusive [cytotoxic, single point]. For Cc1ccc(C(=O)N/N=C/c2ccc(-c3ccc(Br)cc3[N+](=O)[O-])o2)o1, the Potency was inconclusive [cytotoxic, single point]. For O=c1c(Cl)c(Cl)cnn1Cc1nnc(-c2ccccc2Br)o1, the Potency was active: 9.2 µM. With COc1cc(/C=N/NC(=O)c2nnn(-c3nonc3N)c2C(C)C)ccc1OCc1ccc(F)cc1 the Potency was active: 11.6 µM. In the case of COc1cc(/C=N/NC(=O)c2cc(-c3cccc(OC(C)C)c3)nc3ccccc23)ccc1O, the Potency is reported as inconclusive [cytotoxic, partial curve]. With COc1cccc(C2C(C#N)=C(N)N(N(C)C)C3=C2C(=O)CC(C)(C)C3)c1OC (configuration not stated) the “activity, negative = toxicity” value was inactive: 10.1%. In the case of Cc1ccc(OCCOC(=O)c2c(-c3ccccc3)noc2C)cc1, the Potency is reported as inconclusive [cytotoxic, single point]. With Cc1ccc(S(=O)(=O)N2CCC(C(=O)NNC(=O)c3ccccc3O)CC2)cc1 the Potency was inconclusive [cytotoxic, partial curve, poor fit]. With CN(C)Cc1csc(NC(=O)Nc2cccc(C(F)(F)F)c2)n1 the Potency was inconclusive [cytotoxic, single point]. In the case of CCOC(=O)C1=C(CC)OC(N)=C(C#N)C1c1cccs1 (configuration not stated), the Potency is reported as active: 22.4 µM. In the case of Cc1cccnc1Nc1nc(-c2ccccn2)cs1, the Potency is reported as active: 1.03 µM. In the case of Cc1c(C)n(C)c2ccc(C(=O)NCCCN3CCN(c4ccccc4F)CC3)cc12, the Potency is reported as inconclusive [cytotoxic, single point]. With C=C1C(=O)C23CCC4C(C)(C(=O)OC)CCCC4(C)C2CCC1(O)C3 (configuration not stated) the Potency was active: 2.31 µM. With CC(=O)c1ccc(C(=O)Nc2nnc(-c3ccc(Cl)cc3)o2)cc1 the Potency was inconclusive [cytotoxic, partial curve]. For COc1ccc(C)cc1Nc1c2c(nc3ccccc13)CCC2, the Potency was active: 1.16 µM. With Cc1ccc(C)c(NC(=S)NNC(=O)c2sccc2C)c1 the Potency was inconclusive [cytotoxic, single point]. In the case of OCc1cn(-c2ccccc2)nc1-c1ccc2c(c1)OCCO2, the “activity, negative = toxicity” value is reported as inactive: -14.6%. With CCCCOCCCNc1ncnc2c1[nH]c1ccccc12 the Potency was active: 17.8 µM. For CC(=O)N1CCc2cc(S(=O)(=O)NCC(=O)NCc3ccc(F)cc3)ccc21, the “activity, negative = toxicity” value was inactive: -5.43%. With CCOC(=O)c1sc(=NC(=O)c2ccc(OC(C)C)cc2)n(C)c1C the Potency was inconclusive [rising, partial curve, poor fit]. In the case of CC1Sc2ccc(S(=O)(=O)N3CCC(C(=O)Nc4cccc(Cl)c4)CC3)cc2NC1=O (configuration not stated), the Potency is reported as inconclusive [cytotoxic, single point]. For CCC(=O)N1CCC1(C)C(=O)Nc1ccc(F)cc1 (configuration not stated), the activity, negative = toxicity was inconclusive: 34.8%. With Cc1ccc2cc(CN(CC3CCCO3)C(=S)Nc3ccccc3)c(=O)[nH]c2c1C (configuration not stated) the Potency was inconclusive [cytotoxic, partial curve]. In the case of CC(C)(C)N1C(=O)c2ccccc2NC(=O)C1C(=O)NCc1ccco1 (configuration not stated), the “activity, negative = toxicity” value is reported as inactive: 12.7%. With COc1ccc(C(C#N)c2cnccn2)cc1OC (configuration not stated) the “activity, negative = toxicity” value was inactive: 3.88%. With O=C(NN1C(=O)c2ccccc2NC1c1ccco1)c1ccccc1 (configuration not stated) the activity, negative = toxicity was inconclusive: 31.3%. With CCN1CCN(CCNC(=O)c2ccc(/C=C3/Sc4ccccc4N(Cc4cccc(C)c4)C3=O)cc2)CC1 the Potency was inconclusive [cytotoxic, single point]. With CC(C)NC(=O)Nc1ccc2c(c1)C(=O)N([C@H](C)CO)C[C@H](C)[C@@H](CN(C)C(=O)NC(C)C)O2 the “activity, negative = toxicity” value was inactive: 14.4%. For CCOc1cc(/C=C2\CN(C)C/C(=C\c3ccc(O)c(OCC)c3)C2=O)ccc1O, the Potency was active: 4.61 µM. With COc1ccc(C(=O)c2[nH]c(N)c(C(=O)NCCc3c[nH]c4ccccc34)c2-c2ccc(Br)cc2)cc1 the Potency was inconclusive [cytotoxic, single point]. For Cc1[nH]c2ccccc2c1C(=O)c1cc(Cc2ccccc2)sc1N, the Potency was inconclusive [cytotoxic, single point]. With CC1=C(C(=O)c2ccccc2)C(c2ccc(OC(F)F)cc2)NC(=S)N1 (configuration not stated) the Potency was active: 14.6 µM. For CCCC(=O)Nc1ccc(C(=O)Nc2cc(C(F)(F)F)ccc2Cl)cc1, the Potency was inconclusive [cytotoxic, single point]. With COc1ccc(S(=O)(=O)N2CCCCCC2)cc1NC(=O)CN1C(=O)NC(C)(c2ccccc2)C1=O (configuration not stated) the “activity, negative = toxicity” value was inactive: -2.01%. For O=C(NCc1cccnc1)c1cc(C2CCCCN2C(=O)OCCF)on1 (configuration not stated), the “activity, negative = toxicity” value was inactive: 19%. For O=C1C2C3C=CC(CC3)C2C(=O)N1c1ccc(Cl)cc1Cl (configuration not stated), the “activity, negative = toxicity” value was inactive: -2.27%. For C=CCN=C(NC#N)SCC(=O)c1cccc(OC)c1, the Potency was inconclusive [cytotoxic, partial curve]. With CN(C)/C=C/C(=O)c1nnn(C2CCCCC2)c1NC1CCCCC1 the Potency was inconclusive [cytotoxic, single point]. With COc1ccccc1CN(C)C(=O)c1cc(-c2cccs2)nc2ccccc12 the Potency was inconclusive [cytotoxic, single point]. With CCOc1ccc(NC(=S)Nc2cccc3cnccc23)cc1 the “activity, negative = toxicity” value was inactive: -2.26%. In the case of CCCN1C/C(=C/c2cccc([N+](=O)[O-])c2)C(=O)/C(=C/c2cccc([N+](=O)[O-])c2)C1, the Potency is reported as active: 23.1 µM. For Cc1ccc(COn2c(-c3ccc(Cl)cc3Cl)nc3ncccc32)cc1, the Potency was inconclusive [cytotoxic, single point]. In the case of CC1(C)N=C(N)N=C(N)N1c1cccc(C#N)c1, the Potency is reported as active: 0.231 µM. For COc1ccc(C2CC(c3ccccc3)=NN2c2ccc(N)cc2)cc1 (configuration not stated), the Potency was inconclusive [cytotoxic, single point]. For O=C(c1ccc(F)cc1)c1cnc(Nc2ccccc2)s1, the Potency was inconclusive [rising, partial curve]. In the case of Cc1cccc(NC(=O)COc2cccc3c2CCNC3=O)c1, the “activity, negative = toxicity” value is reported as inactive: -1.49%. In the case of CCCc1nnc(SCC(=O)Nc2ccc(OC)cc2)n1N, the activity, negative = toxicity is reported as inconclusive: 22%. For O=c1[nH]c2cc3ccccc3cc2nc1-c1nnnn1C1CCCC1, the Potency was active: 16.4 µM. For C=CCC[C@H](Cc1ccc(F)cc1)C(=O)OC[C@@H](Cc1c[nH]c2ccccc12)NC(=O)[C@@H](CC=C)CC(=O)NCCO, the Potency was inconclusive [cytotoxic, single point]. With COc1cc(C#Cc2c(-c3cncn3C)n(C)c3ccc(-c4cnc(OC)nc4)cc23)cc(OC)c1 the Potency was inconclusive [cytotoxic, single point]. With Cc1onc(-c2ccccc2)c1C(=O)NC(=S)NNC(=O)c1ccc(O)cc1 the Potency was inconclusive [cytotoxic, full curve]. With CC(NC(=O)c1ccncc1)C(c1cccs1)N1CCOCC1 (configuration not stated) the Potency was inconclusive [rising, partial curve]. For COc1ccc2cc(C(=O)C3CCCN(C(=O)/C=C/c4ccccn4)C3)ccc2c1 (configuration not stated), the “activity, negative = toxicity” value was inactive: -2.64%. With OCC1(CCOc2ccccc2)CCN(CC2=Cc3cc(Cl)ccc3OC2)CC1 the Potency was active: 18.4 µM. With COc1ccc(Nc2nc(N)c(C(=O)c3ccc(OC)cc3)s2)cc1 the Potency was inconclusive [cytotoxic, full curve]. With CC1(C(=O)Nc2ccc3c(c2)OCO3)Cc2c(-c3ccc4c(c3)OCO4)ccnc2O1 (configuration not stated) the Potency was active: 2.06 µM. In the case of COC(=O)c1cccc(N2C(=O)c3cccnc3C2=O)c1, the “activity, negative = toxicity” value is reported as inactive: 15.9%. In the case of COc1ccc(F)cc1C(=O)C1CCCN(Cc2cccn2-c2ccccn2)C1 (configuration not stated), the Potency is reported as inconclusive [cytotoxic, partial curve]. With COc1cc2cc(C(c3nnnn3C3CCCCC3)N(C)C3CCCCC3)c(=O)[nH]c2cc1OC (configuration not stated) the Potency was inconclusive [cytotoxic, single point].
